Source: PubChem BioAssay (NCI)
Where “and” joins values, the source holds several entries; their conditions need not be identical. Equal entries are not always repeated.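 Cells were grown in 96-well plates and exposed to each compound for 48 hours at five concentrations; endpoints were interpolated linearly between bracketing concentrations, or set to the highest concentration if not reached. At the GI50, growth is halved. Definition used: TGI = concentration required for complete inhibition of growth.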

Each molecule was assayed on NCI-H322M lung (assay: NCI anticancer screen, dose series, 48 h).

| Compound | TGI | GI50 |
| --- | --- | --- |
| Cc1ccc(N=Nc2c(C)c(C#N)c(=S)n(C3OC(CO)C(O)C(O)C3O)c2C)cc1 (stereo not drawn) | > 100 µM | – |
| CCOP(=O)(O)C1C(CO)OC(n2ccc(=O)[nH]c2=O)C1O (stereo not drawn) | > 100 µM | – |
| O=C(O)[C@@H]1CSCN1C(=O)[C@@H]1CCC(=S)N1 | > 100 µM | – |
| C=C1CC[C@@H]2[C@](C)(COC(C)=O)[C@H](OC(C)=O)CC[C@@]2(C)[C@@H]1CC(Nc1ccc(S(=O)(=O)Nc2ncccn2)cc1)C1=CCOC1=O (stereo partly drawn) | 11.2 µM | 3.12 µM |
| COc1ccc(N2C(=O)c3cc(C)cnc3S2(=O)=O)cc1 | > 100 µM | – |
| O=C(/C(=C/c1cccc([N+](=O)[O-])c1)c1ccccc1)c1ccccc1 | 15.9 µM | 3.53 µM |
| O=C1CCCCC2N(C(c3ccccc3)c3ccccc3)CC[C@@]12c1ccccc1 (mixture of isomers) | > 10 µM | – |
| Clc1ccccc1/C=C/c1cscn1 | > 100 µM | – |
| CC[C@H](C)[C@H]1O[C@]2(C=C[C@@H]1C)C[C@@H]1C[C@@H](C/C=C(\C)[C@@H](O[C@H]3C[C@H](OC)[C@@H](O[C@H]4C[C@H](OC)[C@@H](NC)[C@H](C)O4)[C@H](C)O3)[C@@H](C)/C=C/C=C3\CO[C@@H]4[C@H](O)C(C)=C[C@@H](C(=O)O1)[C@]34O)O2 | 5.52 µM | 2.03 µM |
| O=C(Cc1ccccc1)N/N=C/c1ccccc1O | > 100 µM | – |
| N#Cc1c(-c2ccccc2)cc(Nc2cccc(C(F)(F)F)c2)n2c1nc1ccccc12 | 8.98 µM | – |
| COC(=O)C1C(=O)C=CN([C@H](C)c2ccccc2)[C@@H]1Cc1ccc(OC)c(OCc2ccccc2)c1I (stereo partly drawn) | 61.9 µM | – |
| C/C(=N\Nc1ccc(Cl)cn1)c1ccccn1 | > 100 µM | 0.0643 µM |
| CCCCCCCCCCN(CCCCCCCCCC)C(=O)COc1c2cc(C(C)(C)C)cc1Cc1cc(C(C)(C)C)cc(c1OCC(=O)N(CCCCCCCCCC)CCCCCCCCCC)Cc1cc(C(C)(C)C)cc(c1OCC(=O)N(CCCCCCCCCC)CCCCCCCCCC)Cc1cc(C(C)(C)C)cc(c1OCC(=O)N(CCCCCCCCCC)CCCCCCCCCC)C2 | 33 µM | – |
| Cc1cccc2c(N)c3cccc(C(=O)NCC[N+](C)(C)Cc4c([N+](=O)[O-])ncn4C)c3nc12 | > 100 µM | – |
| COC(=O)C(COC(C)=O)NC(=O)/C=C/c1ccc(O)c(OC(C)=O)c1 (stereo not drawn) | > 100 µM | – |
| O=C(O)[C@@H]1CCCCN1Cc1cc2cc3c(cc2c2cc(OCc4ccccc4)ccc12)OCO3 | > 100 µM | 2.86 µM |
| CC1(C)N=C(N)N=C(N)N1c1ccc(OCc2ccc(S(=O)(=O)F)c(Cl)c2)c(Cl)c1 | > 100 µM | 4.51 µM |
| O=C1N[C@@H](c2c[nH]c3cc(Br)ccc23)C(=O)N[C@H]1c1c[nH]c2cc(Br)ccc12 | > 100 µM | – |
| OC/C=C(\I)CCCOCOCc1ccccc1 | > 100 µM | – |
| Cc1nc2ccccc2c(=O)n1-c1ccccc1F | > 100 µM | – |
| Cc1ccccc1N=Nc1ccc(N/N=C2/CCCNC2=O)c(C)c1 | > 100 µM | – |
| CCc1oc2ccccc2c1C(=O)c1cc(I)c(O)c(I)c1 | 20.2 µM | 6.6 µM |

| Compound | TGI | GI50 |
| --- | --- | --- |
| CC(=NNC(=S)Nc1ccc(C)cc1)c1cccc(C(C)=NNC(=S)Nc2ccc(C)cc2)n1 | > 100 µM | – |
| COc1ccccc1N1CCN(CCCN2/C(=C(\O)c3ccccc3)C(=O)c3c(C)cc(C)nc3S2(=O)=O)CC1 | > 100 µM | – |
| CNc1nc2n(CCO)c(-c3ccccc3)c(-c3ccccc3)nc-2c(=O)n1 | > 50 µM | – |
| COc1ccc(C2SCC(=O)N2NC(=O)Nc2c(C)nc3ccccn23)cc1 (stereo not drawn) | > 100 µM | 74.3 µM |
| Cc1[nH]n(C2=NCCN2)c(=O)c1Cc1ccccc1 | > 100 µM | – |
| NCCCCC(N)C(=O)NCCNc1ccc(NCCNC(=O)C(N)CCCCN)c2c1C(=O)c1ccccc1C2=O (stereo not drawn) | > 100 µM | – |
| COc1ccccc1Cn1cc2c(c1-c1ccccc1)CCc1cnoc1-2 | > 100 µM | 5.93 µM |
| CN1C2CCC1CC(CCNC(c1ccccc1)c1ccccc1)C2 (stereo not drawn) | > 100 µM | – |
| Cc1ccc(-c2cc(=O)c3cc(C)c(C)c(C(=O)O)c3o2)cc1C | > 100 µM | – |
| Nc1nc(-c2cccc(Cl)c2)c(-c2ccc3ncccc3n2)s1 | > 25 µM | > 25 µM |
| Cc1cc(=O)n2nc(CN3CCCCC3)sc2n1 | > 100 µM | – |
| Fc1ccc(-c2nn3ncccc3c2-c2ccnc(Nc3ccc4c(c3)OCCO4)n2)cc1 | > 25 µM | 2.9 µM |
| COC(=O)C(NC(=O)c1ccccc1)c1ccco1 (stereo not drawn) | > 100 µM | – |
| O=C(Nc1ccc(Cl)cc1Cl)C(=O)C(C(=O)c1ccncc1)C1OC(=O)c2ccccc21 (stereo not drawn) | > 100 µM | – |
| CC(C)(C)C1=CC(=C(c2ccc(-c3c4nc(c(-c5ccc(C(=C6C=C(C(C)(C)C)C(=O)C(C(C)(C)C)=C6)c6cc(C(C)(C)C)c(O)c(C(C)(C)C)c6)cc5)c5ccc([nH]5)c(-c5ccc(C(=C6C=C(C(C)(C)C)C(=O)C(C(C)(C)C)=C6)c6cc(C(C)(C)C)c(O)c(C(C)(C)C)c6)cc5)c5nc(c(-c6ccc(C(=C7C=C(C(C)(C)C)C(=O)C(C(C)(C)C)=C7)c7cc(C(C)(C)C)c(O)c(C(C)(C)C)c7)cc6)c6ccc3[nH]6)C=C5)C=C4)cc2)c2cc(C(C)(C)C)c(O)c(C(C)(C)C)c2)C=C(C(C)(C)C)C1=O | > 100 µM | – |
| Cc1ccc(NC(=S)N/N=C(/c2ccccc2)c2ccccn2)cc1 | 0.0159 µM | – |
| COc1ccc(/C=C\c2cc(OC)c(OC)c(OC)c2)cc1OC(=O)NCCN(C)C | > 100 µM | – |
| COC(=O)c1cc(C)c(C)c2c1NC(=O)CNC2=O | > 100 µM | – |
| COc1cccc(N2C(=O)[C@H]3CC(C)c4c([nH]c5ccccc45)[C@H]3C2=O)c1 (stereo partly drawn) | > 100 µM | – |
| O=C1CCCC2(c3ccccc3)Nc3ccccc3N12 (stereo not drawn) | > 100 µM | – |
| CCn1c(SCC(=O)NNC(=S)Nc2ccc(C)cc2)nc2ccccc2c1=O | > 100 µM | – |
| CCc1c(C)c(C#N)c(=S)n(C2OC(COC(C)=O)C(OC(C)=O)C(OC(C)=O)C2OC(C)=O)c1C (stereo not drawn) | > 100 µM | – |
| Cc1ccc(C(=O)Nc2ccc(CN3CCN(C)CC3)c(C(F)(F)F)c2)cc1C#Cc1cnc(N)c2ccccc12 | 1.4 µM | 0.521 µM |

| Compound | TGI | GI50 |
| --- | --- | --- |
| CC(=O)O.[Au].c1ccc([PH+](c2ccccc2)c2ccccc2)cc1 | 30.4 µM | 16.3 µM |
| Cc1ccc(NC(=O)c2cccc(OP(=O)(O)Nc3ccc(C)cc3)c2)cc1 | > 100 µM | – |
| Cc1ccc(S(=O)(=O)OC(c2ccc(Cl)cc2Cl)C2OC(=O)c3ccccc32)cc1 (stereo not drawn) | > 100 µM | – |
| Cn1c(=O)c2[nH]c(CCCCC(=O)O)nc2n(C)c1=O | > 100 µM | – |
| CC(C)CCCC(=O)CCCCCCC(=O)CCN(O)C(=O)C(N)CO (stereo not drawn) | 32.7 µM | – |
| CC1=CC(=O)N(n2c(Cc3ccccc3)n[nH]c2=O)C1=O | > 100 µM | – |
| C=C1CCC23CC(CC[C@@H]2[C@@]12C[C@@H](c1ccoc1)OC2=O)OC3=O (stereo partly drawn) | > 100 µM | – |
| CC(C)=CC(=O)C[C@H]1C(=O)O[C@@H]2C[C@H]3C(C)=CC(=O)[C@@H](O)[C@]3(C)[C@H]3[C@@]4(O)OC[C@]32[C@@H]1[C@@H](C)[C@H]4O | 6.74 µM | – |
| Cc1nn(C(=O)Cc2ccccc2)c2c1C(c1ccc(N(C)C)cc1)SC(N)=N2 (stereo not drawn) | > 100 µM | – |
| COC(=O)CCc1cc(O)c2c(c1)C(C(=O)OC)C(c1ccc(O)c(O)c1)O2 (stereo not drawn) | > 100 µM | – |
| CC1(C)CC(=O)C(/C=N/c2nc(-c3ccccc3)cs2)=C(O)C1 | > 100 µM | – |
| CCOP(=O)(CN1CCNCCNCC1)OCC | > 100 µM | – |
| C=CCc1cc(-c2cc(CC=C)c(O)c(CNCCCl)c2)cc(CNCCCl)c1O | 85.9 µM | – |
| CSC1=N/C(=C\c2ccccc2)C(=O)N1CN1CCCCC1 | > 100 µM | – |
| O=[N+]([O-])c1cccc2nc3ccccc3c(NCCC[N+]3([O-])CCOCC3)c12 | 2.11 µM | – |
| C=CC1(C)CCC2=C(CCC3C(C)(C(=O)OC)CCCC23C)C1=O (stereo not drawn) | 36.5 µM | – |
| COc1cc(NS(=O)(=O)c2ccc(-c3cnc(C4CC4)o3)cc2)ccc1F | 47.6 µM | 1.4 µM |
| COC1=CC2(C=CC1=O)c1cc(OC)c(OC)cc1CCN2C(=O)c1ccccc1 (stereo not drawn) | > 100 µM | – |
| O=c1[nH]c(Nc2nc3ccccc3[nH]2)nc2c1CCC2 | > 100 µM | – |
| NC(=S)Nc1ccc(S(=O)(=O)Nc2ccc(S(N)(=O)=O)cc2)cc1 | > 100 µM | – |
| C/C(=C1/CCC/C(=C(/C)c2ccccc2)C1=O)c1ccccc1 | > 100 µM | – |
| C/C=C(\C)CC/C=C/CO[Si](C)(C)C(C)(C)C | > 100 µM | – |
| COc1cc2c3c(n(CCCCOC(=O)C(Cl)(Cl)Cl)c(=O)c2cc1OC)-c1cc2c(cc1C3=O)OCO2 | > 100 µM | > 100 µM |

| Compound | TGI | GI50 |
| --- | --- | --- |
| CC(C)N1CN(C(C(=O)N[C@@H]2C(=O)N3C2SC(C)(C)C3C(=O)O)c2ccccc2)CSC1=S (stereo partly drawn) | > 100 µM | – |
| N#Cc1c(Cl)c2cc([N+](=O)[O-])ccc2n2c1nc1ccccc12 | 27.6 µM | – |
| FC(F)(F)c1nc(-c2ccccc2)oc1Sc1nnc(Sc2oc(-c3ccccc3)nc2C(F)(F)F)s1 | > 100 µM | – |
| O=C1NN(C2=NNC3(C(=O)N2)c2ccccc2-c2ccccc23)C(c2ccccc2)=N/C1=C/c1ccc(O)cc1 | > 150 µg/mL | 84.4 µg/mL |
| NC(CCC(=O)O)C(=O)N1CCN(c2nc(N3CCCC3)c3nc(Cl)c(NCc4ccccc4)nc3n2)CC1 (stereo not drawn) | 30.4 µM | – |
| CCCCN1CSC(=S)N(Cc2ccccc2)C1 | > 100 µM | – |
| CCOC(=O)C(O)(NC(=O)c1ccc(F)cc1)C(F)(F)F (stereo not drawn) | > 100 µM | – |
| CC(C)(C)c1cc(NC(=O)Cc2ccc(-c3cnc4cc(-c5cnn(CCN6CCOCC6)c5)ccc4n3)cc2)no1 | 50 µM and > 100 µM and > 3 µM | – |
| O=C1C=CC=C/C1=C1\N=C(c2ccccc2OCC(=O)c2ccc(Br)cc2)SS1 | > 100 µM | – |
| COC1(OC)CC(CO)(CNc2nc(N)nc(Cl)c2/C=N\O)C1 | > 100 µM | – |
| O=c1[nH]nc(Cc2ccccc2)[nH]1 | > 100 µM | – |
| COC(=O)C(=Cc1cc(OC)c(OC)c(OC)c1-c1cc2c(cc1C(C)=O)OCO2)C(=O)OC | 68.6 µM | – |
| COc1ccc(C2=Nn3c(nnc(Cc4ccc(Cl)cc4)c3=O)SC2)cc1 | > 100 µM | – |
| Clc1ccc(-c2c(C3=NCCCN3)nnn2-c2ccc(Cl)cc2)cc1 | > 100 µM | – |
| CN(/N=C/c1ccc(OCc2cccc(COc3ccc(C=O)cc3)n2)cc1)c1cnn(-c2ccc(Cl)cc2Cl)c(=O)c1Cl | > 100 µM | – |
| COC(=O)C(=O)C(C(=O)C=C(C)C)C(=O)C(=O)Nc1ccc(C)cc1C (stereo not drawn) | > 100 µM | – |
| COc1cc2c(c(OC)c1OC)-c1c(cc3c(c1OC)OCO3)C1OC2C(C)C1C (stereo not drawn) (tested in a mixture with another compound) | > 100 µM | – |
| NC(N)=N/N=C/c1c(-c2cccc([N+](=O)[O-])c2)nc2n1CCS2 | 40.8 µM | – |
| Cc1nc(-c2ccccc2)c(-c2ccccc2)s1 | > 100 µM | – |
| NCCCn1c2c(c3ccc([N+](=O)[O-])cc3c1=O)C(=O)c1cc(Br)ccc1-2 | 0.391 µM | 0.0481 µM and 0.0339 µM |
| COc1cc2c3c(n(C)c(=O)c2cc1OC)-c1cc2c(cc1/C3=C\CNCCCN)OCO2 | 2.56 µM | 0.277 µM |
